Results: PubChem BioAssay AID743279 (National Center for Advancing Translational Sciences (NCATS), 2014)
The campaign covered roughly 360,000 compounds. About 17,000 (4.7%) were called active. This list was built around the results that the source calls inconclusive (neither active nor inactive); the mix of calls is not that of the screen. Rule as the data show it: active = activity change below about -50%; inconclusive = mostly about -30% to -49%; inactive = weaker than that.

Assay: qHTS for Inhibitors of Inflammasome Signaling: IL-1-beta AlphaLISA Primary Screen
Details: THP-1 LPS/ATP IL-1B secretion, 16 h; at 57.5 µM, hits give low values
Method in brief: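 THP-1 cells pretreated 1 hr with compounds (up to 57.5 uM final), then stimulated with LPS (250 ng/mL final) plus ATP (1.25 mM final); secreted IL-1B measured by AlphaLISA after 16 hr, decreased signal indicating inhibition.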
% is scaled to controls: 0 for no effect and ±100 for the full control effect.

Activity change, inactive:
O=C(/C=C/c1ccc([N+](=O)[O-])s1)N1CCN(c2ccccc2)CC1 -12.4%, COC(=O)c1ccc2nc(-c3ccc(OC)c(OC)c3)c(Cc3cccc(F)c3)n2c1 18.3%, O=C(CSc1nnc(NC(=O)c2ccco2)s1)Nc1ccc(F)cc1F 7.96%, Cc1ccc(-c2c(C#N)c(N)n(-c3ccccc3C)c(=O)c2C#N)cc1 0%, CC(C)c1cc(CNC(=O)CC2C(=O)NCCN2CC2CCCCC2)on1 (centres undefined) -2.65%, CC(C)(C)OC(=O)NCCc1nnc(SCc2cccc(Cl)c2)o1 -5.11%, Cc1cccc(N(C)c2cc(-c3ccc(F)cc3)nc3ccnn23)c1 36.5%, O=C(c1cc(C2CC2)nn1-c1ccccc1)N1CCN(c2ncc(C(F)(F)F)cc2Cl)CC1 -9.69%, COc1cc(C(=O)NC(C)CCc2ccccc2)cc(OC)c1OC (centres undefined) 2.57%, OC(CNCc1ccccc1)(c1ccccc1)c1ccccc1 -9.92%, CCN(CC)S(=O)(=O)c1ccc2[nH]c(=O)cc(C(=O)Nc3ccc(C)cc3)c2c1 4.62%, COc1cc(CNC2CCCCC2OC)cc(OC)c1OC (centres undefined) 7.77%, CC12CCC(C/C1=N/O)C2(C)C (centres undefined) -6.51%, COc1cccc(C(C(=O)NC2CCCC2)N(C(=O)CNC(=O)c2ccco2)c2cccnc2)c1 (centres undefined) 7.94%

Activity change, active:
O=C(Nc1ccn(CCCNCc2cccc3ccccc23)c(=O)n1)OCc1ccccc1 -62%, CC12CC(NC(=O)N1c1cccc(C(=O)Nc3ncn[nH]3)c1)c1ccccc1O2 (centres undefined) -68%, CCc1cc2c(=O)[nH]c(CC(N)=O)nc2s1 -65.8%, Cc1cc(OCc2cc(C(=O)NCCN3CCCCC3CO)no2)cc(C)c1Cl (centres undefined) -61.9%, COC(=O)c1ccc(NC(=O)Nc2ccc(F)c(Cl)c2)cc1 -88.8%, O=Nc1c(O)c2ccccc2c2ccccc12 -76.4%, CN(CCOc1ccc(Br)cc1)C(=O)CNC(=O)c1ccc2ccccc2c1 -91.3%, Cc1ccc(C(=O)N/C(=C\c2ccc(-c3cc(Cl)ccc3Cl)o2)C(=O)NCc2cccnc2)cc1 -60%, COc1ccc(NC(C)=O)c([N+](=O)[O-])c1[N+](=O)[O-] -68.9%, Cc1ccccc1C(=O)N1CCN(c2ccc(NC(=O)c3ccco3)cc2Cl)CC1 -88.9%

Activity change, inconclusive:
Cc1cccnc1C(NC(=O)C1CCN(Cc2ccc3ccccc3n2)CC1)c1ccc(Cl)cc1 (centres undefined) -45.2%, Cc1ccc2c(c1)C(=O)CC(c1ccc3c(c1)OCCO3)O2 (centres undefined) -38.3%, CCN1CCN(c2ccc(S(=O)(=O)N3CCCCC3)cc2NC(=O)c2cccc(C)c2)CC1 -39.3%, CSCCOC(=O)C1=C(C)Nc2ccc(C)cc2S1 -43.3%, COc1ccc(N2C(=NC(=O)c3ccc(Br)cc3)SC3CS(=O)(=O)CC32)cc1 (centres undefined) -35.5%, Cc1cc(C)c(C(=O)N(CCN(C)C)CC2CCCN(Cc3ccccc3F)C2)o1 (centres undefined) -43.9%, CCOC(=O)C1(CC2CC2)CCN(Cc2ccc3cccc(F)c3n2)CC1 -47.1%, Cc1ccc(C)c(-n2cc(CNCCCn3cccn3)c(-c3ccccc3)n2)c1 -49%, COc1cc2nc(NC(=O)c3ccccc3)[nH]c(=O)c2cc1OC -32.3%, COc1ccc(-c2ccc(Nc3ccc(C(=O)N4CCOCC4)cc3)nn2)cc1OC -30.8%, COc1ccc(Cl)cc1C(=O)NCc1ccco1 -32.9%, O=C(Nc1ccc(N2CCCCC2)cc1)C(Cl)c1ccccc1 (centres undefined) -37%, CCCNC(=O)Nc1ccc(C(F)(F)F)cc1 -33.2%, CCO[C@@H]1OC(C(=O)N2CCN(Cc3ccc4c(c3)OCO4)CC2)=C[C@H](c2cn(C(C)=O)c3ccccc23)[C@H]1CCCO -40.3%, CC(C)(C)C(c1nc2ccccc2[nH]1)n1c(-c2cccc(S(C)(=O)=O)c2)nc2ccccc21 (centres undefined) -42.9%, O=C(C[C@H]1C[C@H](C(=O)N2CCCCC2)[C@@]2(CCc3ccccc3)c3[nH]c4ccc(Cl)cc4c3CCN2C1=O)NCc1cccc(C(F)(F)F)c1 -46.5%, c1ccc(Nc2cccc(Nc3ccccc3)n2)cc1 -43.5%, COc1ccc2[nH]cc(CCN=C3SCC(=O)N3C)c2c1 -31.9%, CC(c1ccco1)N(C(=O)COc1ccc(Cl)cc1Cl)c1ccccn1 (centres undefined) -47.8%, COc1ccc(-c2sc3ccc(OC)cc3c2C#Cc2ccccn2)cc1 -31.4%, CCOC(=O)[C@]12CCCC=C1N(Cc1ccc(Cl)cc1Cl)C(=O)[C@H](CC(=O)NCc1cccc3ccccc13)C2 -44.2%, COc1ccccc1N1CCN(C(=O)c2sc3nc(-c4ccc(F)cc4)cn3c2C)CC1 -35.9%, c1ccc(-n2cnnc2SCc2cn3cccnc3n2)cc1 -35.1%, Cc1nc2c(-c3ccccc3)c(C)nn2c(C)c1CCC(=O)NC(C)CCc1ccco1 (centres undefined) -49.8%, COc1ccc(OC)c(-c2cc(C3CCN(c4ncccc4[N+](=O)[O-])CC3)[nH]n2)c1 -44.2%, COc1ccc(CC(N)c2csc(NC(=O)Nc3ccccc3Oc3ccccc3)n2)cc1 (centres undefined) -40.4%, COc1ccc(S(=O)(=O)N2CCCCCC2)cc1C(=O)N(C)Cc1ccc(C)cc1 -41.6%, CCOc1ccc(-c2nc(S(=O)(=O)c3ccccc3)c(NCc3cccnc3)o2)cc1 -33.2%, CCN1CCN(CCOc2cccc(Oc3ccccc3)c2)CC1 -35.8%, Cc1ccnc(NC(=O)c2ccc(S(=O)(=O)N3CCC(C)CC3)cc2)c1 -34%
